Results reported in PubChem BioAssay AID686979 (National Center for Advancing Translational Sciences (NCATS), 2013).
The whole screen tested about 420,000 compounds, of which about 50,000 (12%) were called active. This list was built around the results that the source calls inconclusive (neither active nor inactive); the mix of calls is not that of the screen. Calls come from the whole dose curve; as a rule, active = well fitted inhibition curve with a large enough effect; inconclusive = small, poorly fitted or top-dose-only effect; inactive = flat fitted curve, though single readings scatter. No potency is given beside an inconclusive call; the fits are too rough.

assay: qHTS for Inhibitors of human tyrosyl-DNA phosphodiesterase 1 (TDP1): qHTS in cells in presence of CPT; conditions: chicken DT40 Tdp1-/-;hTDP1 cells + 20 nM CPT, ATP luminescence, 48 h; activity change, negative = growth inhibition: at 46.2 µM (top of the series) unless noted; note: nearly all actives have a fitted effect of over 55% in size
Method in brief: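 Chicken DT40 Tdp1-/- cells stably complemented with human TDP1 were seeded at 400 cells/well in medium containing 20 nM camptothecin, exposed to pin-transferred compounds, and grown at 37 °C for at least 48 hr. Viability was read as ATP luminescence.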
% is set by controls: 0 for no effect and ±100 for the full control effect; potency is the fitted concentration of half-maximal effect; tags give direction and shape of the fitted curve.

SMILES	Potency	activity change, negative = growth inhibition
CCC(C(=O)NCc1ccccc1)n1c(-c2cccs2)nc2ccccc21 (centres undefined)	inconclusive [inhibitor, partial curve]	
O=C(NCCC1=CCCCC1)C1CCC(CNc2nc(=S)[nH]c3ccccc23)CC1 (centres undefined)	inconclusive [inhibitor, partial curve]	
Cc1cc(C)c(NC(=O)c2ccc3nc(C(C)C)oc3c2)c(C)c1	inconclusive [inhibitor, single point]	
Cc1ccc2c(COC(=O)c3ccccc3Cl)cc(=O)oc2c1	inactive	
Cc1ccc(-n2c(=S)[nH]c3c(oc4ccccc43)c2=O)cc1C	inactive	
COc1ccc(NC(=S)NCCSc2ccc(Cl)cc2)c(OC)c1		inconclusive: -30.5% [inhibitor]
CCOCCn1c(=NC(=O)c2ccc3c(c2)OCCO3)sc2cc(OCC)ccc21	inconclusive [inhibitor, single point]	
CC(=O)Nc1ccc(S(=O)(=O)N2CCN(c3ccc([N+](=O)[O-])cc3)CC2)cc1	active: 23.1 µM	
CCN(CC)S(=O)(=O)c1ccc2c(c1)c(=O)c(C(=O)N1CCN(c3cc(C)ccc3C)CC1)cn2C	inactive	
Cc1nc(NC(=O)c2ccccc2)sc1-c1csc(N)n1	inconclusive [inhibitor, single point]	
CCOC(=O)c1c(S(=O)(=O)NCC(=O)Nc2cccc(C)c2)c(C)n(C)c1C	inactive	
CC(=O)Nc1ccc(/C=C/C(=O)c2ccc(-n3nncc3-c3ccccc3)cc2)cc1	active: 5.62 µM	
NCCNS(=O)(=O)c1cccc2c(Cl)cccc12	active: 26.6 µM	
OCCNc1nnc(-c2ccccc2)c(-c2ccccc2)n1	inconclusive [inhibitor, partial curve]	
O=C(Cn1cc(SCc2ccc(F)cc2)c2ccccc21)N1CCCC1	inconclusive [inhibitor, single point]	
CCOc1ccc(S(=O)(=O)Nc2ccc(C(=O)NCc3ccncc3)cc2)cc1	inactive	
Cc1ccc(Cl)cc1N1CCN(C(=O)c2cnc3c(-c4ccc(F)cc4)c(C)nn3c2C)CC1	inconclusive [inhibitor, single point]	
O=C(Nc1ccccc1C(F)(F)F)C1CCN(c2nnc(-n3cccc3)s2)CC1	inconclusive [inhibitor, single point]	
Cc1ccc(C(=O)Nc2cccc(C(=O)NCc3ccco3)c2)cc1	inconclusive [inhibitor, partial curve]	
COc1ccc(/C=C/C(=O)N2CCN(C)CC2)cc1OC	inactive	
Cc1cc(C)n2nc(C(=O)OCC(=O)N3C(C)CCCC3C)nc2n1 (centres undefined)	inactive	
Cc1cccc(S(=O)(=O)c2cn(Cc3ccc(F)cc3)c3cc(N4CCOCC4)c(F)cc3c2=O)c1	inconclusive [inhibitor, single point]	
COc1ccc(S(=O)(=O)N2CCC(c3nnnn3-c3ccccc3)CC2)cc1OC	inconclusive [inhibitor, single point]	
CC(C)C12NC(=O)NC(=O)N1CCS2 (centres undefined)	inconclusive [inhibitor, single point]	
CCC(C(=O)NC1CCCCC1)n1nc(C)c2sc3ccccc3c2c1=O (centres undefined)	active: 10.3 µM	

SMILES	Potency	activity change, negative = growth inhibition
O=C1c2ccccc2C(=O)N1CCCCN(C(=O)c1ccco1)c1ccc(Cl)cc1	inconclusive [inhibitor, single point]	
Cc1ccc(NC(=O)Cn2nnc(C(=O)NCc3cccs3)c2N)cc1F	inactive	
Cc1cc(SCC(=O)c2cccs2)nc2ccccc12	active: 16.4 µM	
Cn1cccc1CC(=O)NNC(=O)Nc1cccc(Cl)c1	inactive	
O=C(Nc1ccc2ccccc2c1)c1cn(-c2ccccc2)nc1-c1cccs1	inconclusive [inhibitor, single point]	
O=C1CCN(S(=O)(=O)c2ccccc2)CCN1CCOCc1ccc(C(F)(F)F)cc1	inconclusive [inhibitor, single point]	
Cc1ccc(C(=O)Nc2cccc(C(F)(F)F)c2)cc1Nc1cnccn1	active: 23.1 µM	
Cc1ccccc1NC(=O)c1nc(SCc2ccccc2F)ncc1Cl	inconclusive [inhibitor, single point]	
Cc1cccc(-c2nc(S(=O)(=O)c3ccccc3)c(N3CCN(c4ccccc4)CC3)o2)c1	active: 18.4 µM	
COc1ccc(NCc2cccn2-c2nnc(N3CCC(C)CC3)s2)c(OC)c1	inconclusive [inhibitor, single point]	
NCCCCc1ccc2ccc3cccc4ccc1c2c34	active: 16.4 µM	
Cc1cc(C(=O)CSc2ccc(Cl)cc2)cc(C)c1OC(=S)N(C)C	inconclusive [inhibitor, single point]	
O=S(=O)(Cc1ccccc1)Nc1cccc(F)c1	inactive	
O=C(Nc1ccc2nc3n(c(=O)c2c1)CCCCC3)c1ccccc1Cl	inconclusive [inhibitor, single point]	
O=C(NCc1ccco1)c1ccc(Cl)nc1	inactive	
COc1cc(NC(=S)N2CCN(Cc3ccccc3)CC2)cc(OC)c1	inconclusive [inhibitor, partial curve]	
CC(=O)Nc1ccc(C2=CC(=O)CC(C)(C)C2)cc1	inconclusive [inhibitor, partial curve]	
CCCCNC(=O)C[C@@H]1C[C@@]2(C(=O)OC)CCCCC=C2N(Cc2ccccc2)C1=O	inconclusive [inhibitor, single point]	
Cc1cc(C)c(S(=O)(=O)N2CCC(C(N)=O)CC2)cc1C	inconclusive [inhibitor, single point]	
COc1cc([N+](=O)[O-])ccc1-c1ccc(C(=O)Nc2ccc(NC(C)=O)cc2)o1	inconclusive [inhibitor, full curve]	
Cn1ccc2c(OCC(=O)NCc3ccc(F)cc3)cccc2c1=O	inactive	
CCOc1ccc(CCN2C(=S)N([C@@H](CC(C)C)CN3CCCC3CN3C(=S)NC[C@@H]3Cc3ccc(O)cc3)C[C@@H]2Cc2ccccc2)cc1 (some centres undefined)	active: 16.4 µM	
COc1ccc2[nH]c(N=Nc3ccccc3C)c(O)c2c1	inconclusive [inhibitor, single point]	
COc1ccc2[nH]cc(CCNc3cc(-c4ccc5c(c4)OCO5)ncn3)c2c1	inconclusive [inhibitor, single point]	
c1ccc2c(-c3csc(-c4ccncc4)n3)c[nH]c2c1	active: 18.4 µM	

SMILES	Potency	activity change, negative = growth inhibition
CCN(C(=O)c1cc2c(=O)[nH]c3ccc(C)cc3c2s1)c1ccc(OC)cc1	active: 29.1 µM	
COc1ccc(C)cc1NC(=O)c1sc2ncnc(N3CCN(c4ccccn4)CC3)c2c1C	active: 16.4 µM	
O=C1NCC(O)=C1C=Nc1ccccc1O	inconclusive [inhibitor, partial curve, poor fit]	
Cc1ccc(Cn2c(CCCO)nc3ccccc32)cc1	inconclusive [inhibitor, single point]	
CCOc1ncccc1C(=O)Nc1ccc(S(=O)(=O)Nc2cc(C)nc(C)n2)cc1		inconclusive: -30.5% [inhibitor]
CC(C)Cn1c(=O)c(C(=O)Nc2cnccn2)c(O)c2ccccc21	inconclusive [inhibitor, single point]	
NC(=O)C1CCN(c2nc(C3CC3)nc3c2nnn3Cc2ccccc2Cl)CC1	inactive	
Cc1cccc(NC(=O)c2cccnc2Cl)n1	inactive	
Cc1ccc(C(=O)c2cn(Cc3ccccc3)c3cc4c(cc3c2=O)OCCO4)cc1	active: 20.6 µM	
CCN(C[C@H]1N[C@@](CC)(C(=O)OC)[C@H]2C(=O)N(Cc3ccccc3)C(=O)[C@@H]12)S(=O)(=O)c1ccc(OC(F)(F)F)cc1	inconclusive [inhibitor, partial curve, poor fit]	
O=C(COc1ccccc1Cl)Nc1ccc2c(c1)OCCO2	inconclusive [inhibitor, single point]	
Cc1cccc(Cn2c(CNC(=O)c3ccccc3)nc3ccccc32)c1	inactive	
C=CCN(CC=C)C(=O)C1c2ccccc2Oc2ccccc21	active: 25.9 µM	
COC(=O)CC1C(=O)NCCN1C(=O)Nc1cccc(Cl)c1 (centres undefined)	inactive	
Cc1cc(NC(=O)c2ccc(Br)o2)ccc1NC(=O)c1ccco1	active: 14.6 µM	
BrC(=C\c1ccccc1)/C=N/n1cnnc1	active: 0.291 µM	
CCOC(=O)c1ccc(-c2ccc(CO)o2)cc1	inactive	
CCCCN(CCCNC(=O)c1c(C)cc(=O)oc1C)c1ccccc1	inconclusive [inhibitor, single point]	
CC(C)OC(=O)NCCOC(=O)Nc1ccc(Cl)cc1	active: 20.6 µM	
CC(C)N(C(=O)CSc1nn2c(=O)c(C(C)(C)C)nnc2s1)c1ccccc1	active: 20.6 µM	
COc1ccc(CCNC(=O)CSc2ncnc3c2oc2ccccc23)cc1OC	inconclusive [inhibitor, single point]	
Cc1cc(C)cc(Nc2ncnc3sc4c(c23)CCCC4)c1	inactive	
COc1ccc(N2CCN(CCCNC(=O)C3CCC(CNc4nc(=S)[nH]c5ccccc45)CC3)CC2)cc1 (centres undefined)	inconclusive [inhibitor, single point]	
C=C(C)CN=C1SC(C(=O)Nc2sc3c(c2C(=O)OC)CCC3)C(N)=C1C(N)=O (centres undefined)	inconclusive [inhibitor, single point]	
